In all, about 33,000 sequences were measured (“E-score (-0.5 to 0.5)”: median about -0.053, highest 2% from about 0.37 on). This is one part of the list.
Each sequence was assayed against Hap1 (UniProt P0CE41) (assay: PBM E-score (8-mer binding enrichment) (E-score (-0.5 to 0.5)); higher = stronger / more preferred TF binding; most listed sequences are background and not binding sites). Details: protein concentration: 200 nM; construct: GST-DNA-binding domain.
Method in brief: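 Yeast transcription factors, full-length or as DNA-binding domains, were expressed with a GST tag using PURExpress in vitro transcription/translation. At about 100-200 nM they were applied to universal all-10-mer Agilent arrays, double-stranded by primer extension on fresh or once-stripped slides. Fluorescent anti-GST detected bound protein, and masliner normalised the scans. E-scores for ungapped eight-base words, pooled with reverse complements, came from the Universal PBM Analysis Suite.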

UniProt P0CE41, sequence (P0CE41 whole entry, the tested form may be a part): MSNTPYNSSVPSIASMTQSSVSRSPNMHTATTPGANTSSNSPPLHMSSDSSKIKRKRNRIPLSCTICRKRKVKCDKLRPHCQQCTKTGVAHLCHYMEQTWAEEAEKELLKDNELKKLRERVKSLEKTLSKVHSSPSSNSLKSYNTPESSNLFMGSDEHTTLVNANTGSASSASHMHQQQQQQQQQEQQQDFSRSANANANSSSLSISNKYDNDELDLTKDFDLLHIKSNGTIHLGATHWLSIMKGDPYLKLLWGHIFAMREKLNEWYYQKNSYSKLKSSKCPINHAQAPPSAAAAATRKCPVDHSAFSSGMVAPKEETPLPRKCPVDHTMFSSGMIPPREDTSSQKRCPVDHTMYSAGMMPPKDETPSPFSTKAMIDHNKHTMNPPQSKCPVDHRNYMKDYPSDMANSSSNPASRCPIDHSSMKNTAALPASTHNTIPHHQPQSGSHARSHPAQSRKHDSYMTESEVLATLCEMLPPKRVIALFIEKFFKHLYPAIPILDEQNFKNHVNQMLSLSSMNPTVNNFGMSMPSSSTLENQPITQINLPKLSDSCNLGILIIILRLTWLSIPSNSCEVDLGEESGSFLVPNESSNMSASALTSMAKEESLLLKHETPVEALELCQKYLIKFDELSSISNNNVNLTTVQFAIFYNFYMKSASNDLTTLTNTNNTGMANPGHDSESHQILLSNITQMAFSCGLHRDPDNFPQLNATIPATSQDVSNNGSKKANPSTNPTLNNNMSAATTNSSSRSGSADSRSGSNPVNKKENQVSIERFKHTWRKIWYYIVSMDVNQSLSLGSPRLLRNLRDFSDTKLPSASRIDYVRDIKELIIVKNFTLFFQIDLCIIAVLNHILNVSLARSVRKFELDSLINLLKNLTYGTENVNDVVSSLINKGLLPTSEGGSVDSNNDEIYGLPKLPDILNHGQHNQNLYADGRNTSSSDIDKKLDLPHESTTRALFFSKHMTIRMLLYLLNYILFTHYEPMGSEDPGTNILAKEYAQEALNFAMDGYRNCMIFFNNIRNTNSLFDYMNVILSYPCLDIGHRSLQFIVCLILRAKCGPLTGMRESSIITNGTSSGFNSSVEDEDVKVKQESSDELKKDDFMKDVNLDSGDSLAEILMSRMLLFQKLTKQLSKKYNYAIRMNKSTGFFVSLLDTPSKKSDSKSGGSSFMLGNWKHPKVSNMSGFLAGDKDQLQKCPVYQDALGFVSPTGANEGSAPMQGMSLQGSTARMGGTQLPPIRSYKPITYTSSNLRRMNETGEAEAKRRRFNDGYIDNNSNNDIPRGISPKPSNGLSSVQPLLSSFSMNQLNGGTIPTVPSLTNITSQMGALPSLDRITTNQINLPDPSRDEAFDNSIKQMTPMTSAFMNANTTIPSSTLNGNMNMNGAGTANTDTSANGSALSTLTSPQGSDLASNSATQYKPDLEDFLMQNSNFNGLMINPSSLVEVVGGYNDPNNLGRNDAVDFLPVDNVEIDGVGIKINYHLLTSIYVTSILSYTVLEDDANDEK

Sequence	PBM E-score
CAGAATCC	0.0558
GCGTAACC	0.011
CGCCACCA	-0.08
ATGGTTAC	-0.199
CATATAGC	-0.049
AAGTAAAC	0.0347
GTCGCCAC	-0.198
AAACAAAG	0.0658
ATGGATAC	-0.0824
TCTGGTAA	-0.0353
CGATAGTC	0.0708
TCATTTAA	-0.167
CGTGGCAA	-0.182
GTACCGAC	0.191
AGAACTCT	-0.226
AGGCACCG	0.00238
GAGAGGCA	0.00691
CCACACCA	-0.263
ATACCGGC	0.398
CTGTTTAA	-0.136
AATCGCAA	0.0133
CCTTCGTA	-0.123
CTTTCGGC	0.348
CACATCTG	-0.23

Sequence	PBM E-score
AGTACGGG	-0.028
TAAGCTAA	-0.0186
GCTAATAC	0.155
ACATTATA	-0.0878
CTCTTCCA	0.0944
ATTACAAG	-0.0768
CACGGGGA	0.189
TTGATAAA	-0.0645
ATAACGGG	0.228
ATGAATCA	-0.159
GACAAGTC	-0.131
CCGTATCA	0.101
CACTTTAC	-0.0959
ATTAAGGC	0.0606
CGTCTAAC	0.047
CTAATCAA	-0.0299
AGGACGCC	-0.0953
CAGCGAAA	-0.0174
GGTTACGA	-0.0956
ATGGGGTG	-0.177
GTGGCCTA	-0.0999
CCCTTTCA	-0.203
GGGTGGCA	-0.0189
GGTCCCAC	0.0838

Sequence	PBM E-score
AGACGCGC	-0.0167
AAGAATGT	-0.0998
CGACCCGA	0.23
CCAGGCGG	0.0355
AGGTCGAA	-0.166
CATACACG	-0.102
CTGCAGGA	-0.126
CAGGTAAG	-0.144
CGAGCTCA	0.169
AGGCGGTA	-0.131
GTAAGCGA	0.00644
CCATAAAC	-0.0452
TCCGAGAA	0.381
GAATGACA	-0.174
AATAGCGT	0.0408
ATGATGCA	-0.258
ATTGCATA	-0.0926
AACACGAG	-0.156
CCGCAGAG	-0.0644
AGCTAACC	-0.0159
ACTGATAT	-0.081
ACACAAAT	0.0159
AAGCATGG	-0.0785
CAACACTG	-0.242

Sequence	PBM E-score
CGCTACCC	-0.0271
AAACTGCC	-0.0803
CGTTCAGA	-0.209
AGTACAAA	-0.174
CGGCGATA	0.472
CGATAACA	0.348
ATATAGCA	-0.23
ACACGCGG	0.156
GCTACACC	-0.113
CAAACCAA	-0.134
ACATGTAG	-0.081
GCCTGGAA	-0.233
GATCGGAC	0.413
ATATGCAC	-0.137
AGGTGGTC	-0.176
GTTACCCA	-0.126
ATCGTTGG	-0.0823
AAGTATCA	-0.109
AAGATTAC	0.0663
ACCTGAGG	-0.23
GCGATAGA	0.223
CCGCGAAA	0.276

From the supplement of paper PMC3334620
